In patent publication US20200231681A1:
Some entries of the source have several records that differ or are many. They are shown here; other results are not. There may be further records. Results that share an entry appear to be repeats on other runs, samples or individuals.

How the values were obtained:
[1] = molecular target: human FGF R3 (IIIc) Fc chimera (R&D systems, 766-FR) (human) (UniProt P22607); experiment: indirect ELISA, hu8C4 at 0.240 nM
[2] = molecular target: human FGF R3 (IIIc) Fc chimera (R&D systems, 766-FR) (human) (UniProt P22607); experiment: indirect ELISA, hu8C4 at 1.200 nM
[3] = molecular target: human FGF R3 (IIIc) Fc chimera (R&D systems, 766-FR) (human) (UniProt P22607); experiment: indirect ELISA, hu8C4 at 6.000 nM

B1: hu8C4 (IgG1 humanized antibody having a hinge region of SEQ ID NO: 38 in hu8C4-1) (antibody, V domains shown)
VH: EVQLVESGGGLVQPGGSLRLSCAASGYTFSDYYINWVRQAPGKGLEWIGEIFPGSGNTHFSARFKGRATLSADKSKNTAYLQMNSLRAEDTAVYYCAGGDYGFLYWGQGTLVTVSS
VL: DIQMTQSPSSLSASVGDRVTITCGASENIYGALNWYQQKPGKAPKLLIYGATNLADGVPSRFSGSGSGRDFTFTISSLQPEDIATYYCQNVLSSPYTFGQGTKVEIK
Which results are given for B1?
A450 nm-A570 nm (A450 nm-A570 nm) [1]: -0.01 and 0 [columns of one line]; A450 nm-A570 nm (A450 nm-A570 nm) [2]: 0 and 0.01 [columns of one line]; A450 nm-A570 nm (A450 nm-A570 nm) [3]: 0 and 0.01 [columns of one line]
